From PubChem BioAssay AID1466 (National Center for Advancing Translational Sciences (NCATS), 2008)
Among all 200,000 compounds or so, about 10 (0.005%) were called active. This list was built around the results that the source calls inconclusive (neither active nor inactive); the mix of calls is not that of the screen. Calls follow the shape of the dose curve; as a rule, active = well fitted inhibition curve with a large enough effect; inconclusive = small, poorly fitted or top-dose-only effect, or effect the other way, or another doubt; inactive = no such curve, though single readings can be large or run the other way. No potency is given beside an inconclusive call; the fits are too rough.

Each compound was assayed against Lysosomal alpha-glucosidase (Homo sapiens) (UniProt P10253) (assay: qHTS Assay for Inhibitors of Human alpha-Glucosidase as a Potential Chaperone Treatment of Pompe Disease). Details: purified human GAA, 4-MU-alpha-glucoside fluorescence; activity change, negative = inhibition: at 76.9 µM (top of the series) unless noted.
Outline: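 Enzyme (4 nM final) mixed with compound (up to 77 uM), then 4-MU-alpha-D-pyranoside (400 uM final) added; 20 min at room temperature, pH 5.0. Reaction stopped at pH 10, fluorescence read, AC50 derived by Hill fit.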
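For activity change, negative = inhibition in this document: plate controls were uninhibited enzyme wells for no effect and no-enzyme background for full effect.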
Potency is read from the fitted curve at half-maximal effect; tags tell the direction and shape of the fitted curve.

Q: With COC(=O)c1ccc(N2CCN(S(=O)(=O)c3ccccc3)CC2)c([N+](=O)[O-])c1 as the compound, how does the Potency read?
A: The Potency was inconclusive [inhibitor, partial curve].

Q: With Nc1ccc(S(=O)(=O)c2ccc(N)c(N)c2)cc1 as the compound, how does the “activity change, negative = inhibition” value read?
A: Its value is inactive: 1.23%.

Q: For O=C(Nc1ccncc1)c1ccccc1[N+](=O)[O-], which Potency is on record?
A: The Potency was inconclusive [inhibitor, single point].

Q: Which activity change, negative = inhibition does the source give for Cc1ccc(S(=O)(=O)n2nc(OC(=O)C(C)(C)C)cc2N)cc1 here?
A: Its activity change, negative = inhibition is inconclusive: -16.2% [inhibitor].

Q: How did the Potency turn out when Cc1ccccc1-c1nn(-c2ccc(F)cc2F)cc1CNCCCO was run?
A: Its Potency is inconclusive [activator, single point].

Q: How did the activity change, negative = inhibition turn out when CCc1nc(SCC(=O)OC(C)C)c2ccccc2n1 was run?
A: The activity change, negative = inhibition was inconclusive: 17.4% [activator].

Q: How did the Potency turn out when Cc1cccc(C)c1NC(=O)Cn1nnc(-c2ccc(CN3CCC(C)CC3)cc2)n1 was run?
A: Its Potency is inconclusive [activator, full curve, poor fit].

Q: COC(=O)c1ccc(OCC(O)CN(CC(C)C)CC(C)C)cc1 (stereo unspecified) was tested. Which Potency did it give?
A: Its Potency is inconclusive [inhibitor, single point].

Q: For Cn1c(Oc2ccc3c(c2)OCO3)nc2c1c(=O)n(Cc1ccccc1)c(=O)n2C, which Potency is on record?
A: Its Potency is inconclusive [inhibitor, full curve, poor fit].

Q: With CNc1c([N+](=O)[O-])cnn1-c1ccccc1Cl as the compound, how does the “activity change, negative = inhibition” value read?
A: Its value is inactive: -8.99%.

Q: For CC(=O)NCCC(=O)N1CCc2c([nH]c3ccccc23)C1c1cccc(C)c1 (stereo unspecified), which activity change, negative = inhibition is on record?
A: Its activity change, negative = inhibition is inconclusive: 12.7% [activator].

Q: For CCOc1ccc(C(=O)N2CCN(c3cccc(Cl)c3)CC2)cc1, which “activity change, negative = inhibition” value is on record?
A: Its value is inactive: -7.63%.

Q: How did the Potency turn out when Cc1cc(C)cc(NC(=O)Cn2nnc3ccccc3c2=O)c1 was run?
A: The Potency was inconclusive [inhibitor, single point].

Q: How did the Potency turn out when COc1ccccc1N1CCN(C(=O)c2c(-c3ccccc3)noc2C)CC1 was run?
A: The Potency was inconclusive [activator, partial curve].

Q: For O=C1CCCN1c1ccc(S(=O)(=O)Nc2cccnc2)cc1, which Potency is on record?
A: Its Potency is inconclusive [inhibitor, single point].

Q: CN(CCCNC(=O)CSc1cc(=O)n(C)c2ccc(Cl)cc12)Cc1ccccc1 was tested. Which Potency did it give?
A: The Potency was inconclusive [inhibitor, partial curve, poor fit].

Q: For CCOc1ccc(C(=O)Nc2ccc(N3CCN(C(C)=O)CC3)cc2)cc1[N+](=O)[O-], which Potency is on record?
A: The Potency was inconclusive [inhibitor, full curve, poor fit].

Q: For O=S(=O)(Nc1cccc(Oc2cnccn2)c1)c1ccc(F)cc1, which Potency is on record?
A: The Potency was inconclusive [activator, full curve, poor fit].

Q: COc1ccc(NC(=O)c2ccco2)cc1N was tested. Which “activity change, negative = inhibition” value did it give?
A: Its value is inactive: -11.4%.

Q: CC(C)(C)C1CCC2(CC1)Nc1cccc3cccc(c13)N2 was tested. Which Potency did it give?
A: Its Potency is inconclusive [inhibitor, single point].

Q: For O=C(CSc1ccc2ccccc2c1)NCc1cccs1, which Potency is on record?
A: The Potency was inconclusive [inhibitor, single point].

Q: How did the Potency turn out when Clc1ccc2c(c1)C1OCCC1C(c1ccco1)N2 (stereo unspecified) was run?
A: The Potency was inconclusive [activator, partial curve].

Q: With Cc1ccc(CN(Cc2cccnc2)C(=S)Nc2cc(Cl)ccc2C)cc1 as the compound, how does the “activity change, negative = inhibition” value read?
A: The value was inactive: -3.74%.

Q: Which Potency does the source give for CC(CCn1cccn1)NC(=O)CCc1nnc(C2CCCCC2)o1 (stereo unspecified) here?
A: The Potency was inconclusive [inhibitor, single point].

Q: How did the Potency turn out when Cc1ccc(S(=O)(=O)Nc2ccc(-c3cn4ccc(C)cc4n3)cc2)cc1 was run?
A: Its Potency is inconclusive [inhibitor, partial curve].

Q: How did the Potency turn out when CCN1CCN(C(=O)CCCCCn2c(=O)[nH]c3cc(C(=O)OC)ccc3c2=O)CC1 was run?
A: Its Potency is inconclusive [activator, partial curve].

Q: How did the “activity change, negative = inhibition” value turn out when Cc1ccc(NC(=S)NNC(=O)c2c(Cl)c(C)nn2C)cc1 was run?
A: The value was inactive: 0.308%.

Q: For O=C(CS(=O)(=O)c1c[nH]c2ccccc12)N1CCCCCC1, which Potency is on record?
A: Its Potency is inconclusive [inhibitor, single point].

Q: For O=c1c(-c2ccccc2)c(O)cc(-c2ccncc2)n1-c1ccc(Cl)cc1, which Potency is on record?
A: The Potency was inconclusive [inhibitor, full curve].

Q: How did the “activity change, negative = inhibition” value turn out when O=C1Nc2ccc(NS(=O)(=O)c3cccs3)c3cccc1c23 was run?
A: Its value is inactive: 3.19%.

Q: CCC(CO)[n+]1c(C)cc(/C=C2\Sc3ccccc3N2Cc2ccccc2)cc1C (stereo unspecified) was tested. Which Potency did it give?
A: The Potency was inconclusive [inhibitor, single point].

Q: For O=C(O)c1cccc(Nc2ncnc3sccc23)c1, which Potency is on record?
A: Its Potency is inconclusive [inhibitor, partial curve, poor fit].

Q: With CCn1c(=N)c(C(=O)NCc2cccnc2)cc2c(=O)n3cccc(C)c3nc21 as the compound, how does the Potency read?
A: The Potency was inconclusive [activator, single point].

Q: Which Potency does the source give for CN(CCC#N)C(=O)COC(=O)c1cc(Cl)cc(Cl)c1N here?
A: Its Potency is inconclusive [activator, partial curve].

Q: Cc1ccccc1-c1nc(C#N)c(NCc2ccco2)o1 was tested. Which “activity change, negative = inhibition” value did it give?
A: The value was inactive: -5.5%.

Q: For CCN1CCN(C(=O)Cn2c(=O)sc3ccccc32)CC1, which Potency is on record?
A: Its Potency is inconclusive [inhibitor, single point].

Q: How did the Potency turn out when COc1cccc2c(=O)c3c(cnn3C)n(C)c12 was run?
A: The Potency was inconclusive [activator, partial curve].

Q: How did the activity change, negative = inhibition turn out when COc1cccc2cc(-c3nnc(SCC(=O)Nc4nc(C)cs4)n3C)oc12 was run?
A: The activity change, negative = inhibition was inconclusive: -17.3% [inhibitor].

Q: How did the Potency turn out when COCCN1CC(=O)N(c2cccc(C)c2C)C(c2ccc(Cl)cc2)C1=O (stereo unspecified) was run?
A: The Potency was inconclusive [inhibitor, single point].

Q: For CCN=C1Sc2nc3ccc(OCC)cc3cc2CN1CCOC, which Potency is on record?
A: Its Potency is inconclusive [inhibitor, single point].

Q: How did the Potency turn out when CCOC(=O)CCc1c(C)c(C#N)c2[nH]c3ccccc3n2c1=O was run?
A: Its Potency is inconclusive [activator, partial curve].

Q: Which Potency does the source give for COc1ccccc1N1CCN(S(=O)(=O)c2cccc3nsnc23)CC1 here?
A: Its Potency is inconclusive [inhibitor, single point].

Q: For O=C(CCSCCC(=O)Nc1c(F)c(F)c(F)c(F)c1F)Nc1c(F)c(F)c(F)c(F)c1F, which Potency is on record?
A: Its Potency is inconclusive [activator, single point].

Q: With O=c1/c(=C/c2ccc(O)cc2)sc2n1CCCN=2 as the compound, how does the Potency read?
A: Its Potency is inconclusive [activator, partial curve].

Q: Which activity change, negative = inhibition does the source give for O=C(c1ccc(S(=O)(=O)c2cccc(Cl)c2)c([N+](=O)[O-])c1)N1CCN(c2ccccn2)CC1 here?
A: The activity change, negative = inhibition was inconclusive: 15.6% [activator].

Q: COC(=O)C1C(=O)CC(C)(O)C(C(=O)OC)C1c1ccc2c(c1)OCO2 (stereo unspecified) was tested. Which Potency did it give?
A: The Potency was inconclusive [inhibitor, partial curve, poor fit].

Q: How did the Potency turn out when O=S(=O)(Nc1ccc(N2CCCCC2)cc1)c1ccccc1F was run?
A: Its Potency is inconclusive [inhibitor, single point].

Q: Cc1cc(C)nc(SCc2nnc(SCC(=O)O)n2-c2ccccc2)n1 was tested. Which activity change, negative = inhibition did it give?
A: Its activity change, negative = inhibition is inconclusive: 15.2% [activator].

Q: With CC(/C=C/c1ccc(N(C)C)cc1)=N\N=C1\NC(=O)CC(C(=O)Nc2ccccc2)S1 (stereo unspecified) as the compound, how does the Potency read?
A: Its Potency is inconclusive [inhibitor, single point].

Q: Which Potency does the source give for CCCOC(=O)c1ccc(NC(=O)C(=O)NCC2CCCO2)cc1 (stereo unspecified) here?
A: Its Potency is inconclusive [inhibitor, single point].

Q: Which Potency does the source give for Cc1onc(-c2ccccc2Cl)c1C(=O)Nc1ccc(-n2nncc2-c2ccco2)cc1 here?
A: Its Potency is inconclusive [inhibitor, partial curve].

Q: O=S(=O)(c1ccc(Cl)cc1)N1CCN(Cc2ccc(O)c3ncccc23)CC1 was tested. Which Potency did it give?
A: Its Potency is inconclusive [inhibitor, partial curve].

Q: For CC(C)c1ccc(/C=C/C(=O)Nc2ccc(CN3CCOCC3)cc2)cc1, which Potency is on record?
A: Its Potency is inconclusive [inhibitor, partial curve].

Q: For CCCC1OC23CCCCC2C(C#N)(C#N)C1(C#N)C(=N)O3 (stereo unspecified), which Potency is on record?
A: The Potency was inconclusive [activator, single point].

Q: How did the Potency turn out when Cc1cc(=O)[nH]c(SCC(=O)Nc2ccc(S(=O)(=O)N3CCCCC3)cc2)n1 was run?
A: Its Potency is inconclusive [inhibitor, partial curve, poor fit].

Q: CCNC(=S)N/N=C/c1cccc(/C=N/NC(=S)NCC)c1 was tested. Which activity change, negative = inhibition did it give?
A: The activity change, negative = inhibition was inconclusive: 12.2% [activator].

Q: Which activity change, negative = inhibition does the source give for Cc1cc(Nc2ccccc2)nc(NCc2ccccc2)n1 here?
A: Its activity change, negative = inhibition is inconclusive: -15.1% [inhibitor].

Q: Which activity change, negative = inhibition does the source give for O=c1c([N+](=O)[O-])c(N2CCCC2)c2ccccc2n1-c1ccccc1 here?
A: The activity change, negative = inhibition was inconclusive: 8.94% [activator].

Q: With Cc1ccc(-c2cc(-c3ccc(F)cc3)nc(N)c2C#N)o1 as the compound, how does the Potency read?
A: The Potency was inconclusive [activator, partial curve, poor fit].

Q: CCOC(=O)C1CCCN(C(=O)c2cn(CC)c3ccc(S(=O)(=O)N4CCCC4)cc3c2=O)C1 (stereo unspecified) was tested. Which Potency did it give?
A: Its Potency is inconclusive [inhibitor, single point].

Q: For COC(=O)C1=CN(CC2CCCO2)C=C(C(=O)OC)C1c1cc(OC)c(OC)c(OC)c1 (stereo unspecified), which Potency is on record?
A: The Potency was inconclusive [activator, partial curve].

Q: COc1ccc(CC(=O)NNC(=O)c2cccs2)cc1OC was tested. Which activity change, negative = inhibition did it give?
A: The activity change, negative = inhibition was inconclusive: 17% [activator].

Q: Clc1ccc(CNc2nc(N3CCOCC3)nc(N3CCOCC3)n2)cc1 was tested. Which activity change, negative = inhibition did it give?
A: The activity change, negative = inhibition was inconclusive: -17.2% [inhibitor].

Q: How did the Potency turn out when COc1cc(N/N=C/c2ccccc2O)ncn1 was run?
A: The Potency was inconclusive [activator, partial curve].

Q: Which activity change, negative = inhibition does the source give for COc1cccc(CC2(CO)CCN(Cc3ccc(NC(C)=O)cc3)CC2)c1 here?
A: The activity change, negative = inhibition was inconclusive: 21.2% [activator].

Q: Which Potency does the source give for CCOc1ccc(N(C)S(=O)(=O)c2ccc3[nH]cc(C(=O)NCCOC)c(=O)c3c2)cc1 here?
A: The Potency was inconclusive [inhibitor, full curve].
